± gives the standard deviation of the averaged measurements. The list shows a part of the results.
system: PfAP2-LT AP2 domain (GST-tagged); assay: gcPBM binding intensity (ln(normalized median fluorescence intensity)); higher = stronger DNA binding
Procedure, shortened: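 An Agilent 4 × 180k array carrying primer-extended double-stranded 36-bp intergenic genomic probes and negative controls received GST-tagged P. falciparum DNA-binding domains expressed in E. coli, about 25 μg on average, for 1 h. The binding buffer contained 1× PBS, 1% milk, 0.2 mg/ml BSA, 0.5% salmon testes DNA and 0.03% Triton X-100. Binding intensity is the top Masliner-normalised natural-log median intensity across replicate spots of either probe orientation, read after Alexa488 anti-GST antibody staining and a 488 nm scan.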

| Sequence | gcPBM binding intensity (ln) |
| --- | --- |
| AACAAACAAACAAATATACACACTTTTGTATAAAGT [CACACA_site3509] | 9.17 ± 0.41 |
| TACATTGTATACATATGTACACATATATATATATAT [XGTACX_site6174] | 9.59 ± 0.25 |
| TATTTATGTTATAATTGTACAATAAACAAATTTTTT [XGTACX_site5306] | 8.45 ± 0.31 |
| AAAAAAATCTATATTACACACATATATACCTATATA [CACACA_site7464] | 8.9 ± 0.39 |
| TATATATATATAATGTGTACATACTAAATAGAGGAC [XGTACX_site4153] | 9.2 ± 0.49 |
| GAAATGTATAAATCCATACACACATAAATTTTAATA [CACACA_site2364] | 9.01 ± 0.45 |
| TAAATATAAAAATGCACACACACAAAAAAAAAAAAA [CACACA_site895] | 9.63 ± 0.49 |
| ATAGGTGAATACTAATATAAATTCAAGAGGGAAAAG [CACACA_negctrl_site720] | 8.9 ± 0.55 |
| TTTACATTAAATCACGCACACAAAAAAAAAAAAAAA [CACACA_site2418] | 8.94 ± 0.37 |
| TATTTATTTGTGGGGTGTACGAAATTTTTTTTTTTT [XGTACX_site5091] | 9.31 ± 0.099 |
| TTTGAATTTTTATATACACACATTATTATATTATAT [CACACA_site1593] | 8.96 ± 0.42 |
| ATCTATGGAGCTTATACACACTTTTATATTTTAACA [CACACA_site5994] | 8.93 ± 0.46 |
| GGAATAAATAATATTATACACACGTATATTATTATA [CACACA_site2435] | 8.81 ± 0.4 |
| AAGCTTTCATAAAGATGTACTTTTTAAAAATAATCT [XGTACX_site5725] | 8.28 ± 0.3 |
| TGTGCATAATTTTGTGCACACCACGCTAATAATTTT [CACACA_site2915] | 8.94 ± 0.35 |
| ATAAATATATGATAAAGTACATATTTATATAATAAA [XGTACX_site7263] | 8.71 ± 0.36 |
| TGATATTATATATATACACACATGTATGTATATATA [CACACA_site1364] | 8.85 ± 0.34 |
| ATATTTATTTATAATTGTACTAATAATATATTTTAA [XGTACX_site587] | 8.42 ± 0.55 |
| ATGTATCTATATATATGTACACATATTTTAATTAAA [XGTACX_site3673] | 8.69 ± 0.39 |

| Sequence | gcPBM binding intensity (ln) |
| --- | --- |
| AAAATAAAAAATTAATGTACTTAGAATTGTCACTAA [XGTACX_site1346] | 8.46 ± 0.52 |
| TTTTGTAAATATATATGTACATATATATATATATAT [XGTACX_site5803] | 9.27 ± 0.2 |
| ACCTATTTATAATAGTGTACGTACAAATTTGTTTAC [XGTACX_site8176] | 9.09 ± 0.39 |
| TTTTTCATGTTTATTAGTACATATATTAAGAATGGA [XGTACX_site3493] | 8.34 ± 0.42 |
| AATTTGTTGAAACACACACACACATACATATATATA [CACACA_site2287] | 9.91 ± 0.4 |
| TAAAATAATAAACAGAAGAAATCATTCATATAAAAA [XGTACX_negctrl_site502] | 8.54 ± 0.5 |
| AAAGAAAATAACAAAATTTTGAAAACATCACATTCG [CACACA_negctrl_site89] | 8.84 ± 0.46 |
| AAATTAAAGGCATAAAAGAAAATATTTAATAAAAAA [CACACA_negctrl_site1689] | 8.4 ± 0.6 |
| ACCAGTTCTTAATACAAATATGTACATATATATATA [GTGCAC_negctrl_site56] | 9.03 ± 0.24 |
| TTTTTTTTAATTGTGATACGTATATTATTTAATGAT [CACACA_negctrl_site38] | 8.69 ± 0.4 |
| ATATATAATAAACAGGTGCATTGTTTTATTTTGTAT | 8.87 ± 0.45 |
| AGCAGGATTAAAAAAAGTACAAGAATTAATATTTAA [XGTACX_site3413] | 8.54 ± 0.7 |
| AATTATTATCCCCTCACACACAAAAATAAAAAGAAT [CACACA_site2885] | 9.47 ± 0.31 |
| ATTTTTTATTGTTATAAAAAAAAAATTAAACAATTA [CACACA_negctrl_site1077] | 8 ± 0.38 |
| TATATCTATAATATTACACACATATATTTATATTTT [CACACA_site7595] | 8.95 ± 0.33 |
| CAAAAAAAGGAAAAGATACACACCGTAAATTAAAAT [CACACA_site3612] | 9.15 ± 0.46 |
| TATTCGTCTTTTTTCTCACACACCCTTTTTATTAAA [CACACA_site2508] | 9.09 ± 0.51 |
| AAATTTAGGAACATTATATATATATATATATATATA [CACACA_negctrl_site862] | 9.47 ± 0.26 |
| TAAAAATAAAGAAAATGTACATAAATAATAATACAT [XGTACX_site2278] | 8.89 ± 0.44 |

| Sequence | gcPBM binding intensity (ln) |
| --- | --- |
| GAACATTTGAAATATGCACACATGTATAAACCTACA [CACACA_site2654] | 9.07 ± 0.31 |
| AAAATAATAAAAAAAAAAAAAAAAAAAAAAAAGTAT [TGCATGCA_negctrl_site193] | 8.8 ± 0.59 |
| ATATATCTTCTTTGCACACTTAAAGGGAAGTGATAA [CACACA_site342] | 8.72 ± 0.3 |
| AAATAAAATAAAACAACACACACGAATGTATAAATA [CACACA_site885] | 9.45 ± 0.33 |
| AAAAAAATAATAAAATGTACAAATAAACACATAAAG [XGTACX_site5102] | 9.05 ± 0.55 |
| ACAAAGATAAAACATAAAATATATCAAACATAAAAT [XGTACX_negctrl_site198] | 8.96 ± 0.5 |
| AATAAATATAAATACACACCCATATAAATATAAATA [CACACA_site7264] | 9.3 ± 0.28 |
| AAAAAAAATACATGTTGTACGGTACAAATATAAAGT [XGTACX_site2863] | 9.41 ± 0.4 |
| TAATGTATCTAAAATTGTACAAATATAAATCTAAAT [XGTACX_site1197] | 8.68 ± 0.43 |
| TATATACACGCACATACACACAAATAAAAAAACACC [CACACA_site7578] | 9.67 ± 0.31 |
| TGTGTTGTAATTAAAACACACATGAAAAAATTAAAA [CACACA_site51] | 8.9 ± 0.37 |
| GTATTATTCTATAGAAGTACAGTATATTATTATTTA [XGTACX_site5073] | 8.56 ± 0.35 |
| TAAGGATTGGTATAAAGTACAGGAGTAAATTGAAAA [XGTACX_site8525] | 8.86 ± 0.59 |
| TACATATTGAATAAGACACACATATATATATATATA [CACACA_site1878] | 9.72 ± 0.18 |
| ATATTTTTTTTTTATTGTACCCTCATAAAAGAAAAG [XGTACX_site773] | 8.24 ± 0.4 |
| CATACACATATATATTGTACACATATATGTATGTAT [XGTACX_site4030] | 8.98 ± 0.31 |
| TACAACAAGTAATGGTGTACATTATATTATGTAATA [XGTACX_site1194] | 8.88 ± 0.43 |
| TATAACAATTTTTATGCATGCGACTATAATATTTTT [TGCATGCA_site508] | 8.92 ± 0.42 |
